# Test results: PubChem BioAssay AID2451 (National Center for Advancing Translational Sciences (NCATS), 2010)
# Among all 290,000 compounds or so, about 2,100 (0.72%) were called active. The shares of active, inactive and inconclusive entries below differ from those in the screen. The call rests on the fitted dose curve; in most records, active means well fitted inhibition curve with a large enough effect; inconclusive means small, poorly fitted or top-dose-only effect, or effect the other way; inactive means flat fitted curve, though single readings scatter. Potencies of inconclusive entries are doubtful fits and often do not repeat.
# Target: Fructose-bisphosphate aldolase (Giardia intestinalis (strain ATCC 50803 / WB clone C6)) (UniProt A8B2U2)
# Assay: qHTS Assay for Inhibitors of Fructose-1,6-bisphosphate Aldolase from Giardia Lamblia; further: nearly all actives have a fitted effect of over 55% in size
# Conditions: purified Giardia FBPA; series mostly up to 59.6 µM
# Procedure, shortened: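 40 nM FBPA preincubated 10 min at RT with compound (up to 57.5 uM final), then substrate plus GAPDH/TPI/NAD/arsenate coupling and diaphorase/resazurin added. Fluorescence read after 20 min at RT, 525/598 nm.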
# Potency means the concentration at half of the fitted maximal effect; tags describe the fitted curve by direction and shape.
# Sequence of UniProt A8B2U2 (A8B2U2 whole entry, looked up): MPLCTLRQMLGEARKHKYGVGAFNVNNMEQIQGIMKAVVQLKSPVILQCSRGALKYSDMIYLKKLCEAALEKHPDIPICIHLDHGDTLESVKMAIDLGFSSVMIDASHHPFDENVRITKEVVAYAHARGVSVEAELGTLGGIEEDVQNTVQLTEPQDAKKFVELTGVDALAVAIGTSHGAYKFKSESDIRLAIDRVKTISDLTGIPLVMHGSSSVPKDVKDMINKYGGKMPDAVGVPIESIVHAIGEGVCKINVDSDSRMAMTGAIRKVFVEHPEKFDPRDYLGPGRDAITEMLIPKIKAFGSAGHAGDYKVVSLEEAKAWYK
row,SMILES,Potency
1,CC(NC(=O)CCN1N=C(c2ccccc2)CCC1=O)c1ccc2c(c1)OCCO2 (centres undefined),inactive
2,CC(C)(O/N=C(\C(=O)N[C@@H]1C(=O)N2C(C(=O)[O-])=C(C[n+]3ccccc3)CS[C@@H]12)c1csc(N)n1)C(=O)O,"inconclusive: 11.2 µM [inhibitor, partial curve]"
3,Cc1cc(C)[n+]2[nH]c(N)c(N=Nc3ccccc3)c2n1,"inconclusive: 17.7 µM [inhibitor, partial curve]"
4,O=C(Nc1ccc(-n2cc(Br)cn2)cc1)c1ccncc1,inactive
5,CN1CCN(CCCN2c3ccccc3Sc3ccc(C(F)(F)F)cc32)CC1,inactive
6,O=C(CN1CCCC1)Nc1ccc(Br)cc1,"inconclusive: 14.1 µM [inhibitor, partial curve]"
7,CC1CCCC(C)N1/N=C/c1ccccc1F (centres undefined),"inconclusive: 12.6 µM [inhibitor, partial curve]"
8,NS(=O)(=O)c1ccc(CNc2ccc3ccccc3n2)cc1,"inconclusive: 35.5 µM [inhibitor, single point]"
9,Cc1ccc(NC(=O)c2cccc(C(=O)Nc3ccc(C)cc3C(=O)O)c2)c(C(=O)O)c1,"inconclusive: 39.8 µM [inhibitor, single point]"
10,CC(C)N1C(=O)CC2(CC[N+](C)(CCOC(=O)C(O)(c3ccccc3)c3ccccc3)CC2)C1=O (centres undefined),inactive
11,OCCCn1c(-c2ccccc2)nc(=S)c2c1CCCC2,"inconclusive: 19.9 µM [inhibitor, partial curve]"
12,COc1ccc(-c2csc(N(CCCN(C)C)C(=O)c3ccccc3F)n2)cc1,active: 28.2 µM
13,CCN1CCN(CC(=O)N/N=C/c2cc(Br)cs2)CC1,active: 17.8 µM
14,O=C(CSc1nc2ncccc2[nH]1)Nc1ccccc1-c1ccccc1,"inconclusive: 22.4 µM [inhibitor, single point]"
15,COc1ccc(OC)c(NC(=O)COC(=O)c2c3c(nc4ccccc24)CCCC3)c1,inactive
16,CCOC(=O)C1CCN(C(=O)CCCCn2c(=O)[nH]c3ccccc3c2=O)CC1,inactive
17,N#Cc1cc(-c2ccccc2)nn1-c1ccccc1,"inconclusive: 17.7 µM [inhibitor, partial curve]"
18,Cc1cccc(C(=O)NNC2=C(C(=O)C(F)(F)F)CCC2)c1O,inactive
19,Cc1cc(=O)[nH]c(SCc2cn3ccccc3n2)n1,"inconclusive: 15.8 µM [inhibitor, single point]"
20,COc1ccc(CCC(C)NCc2ccc(F)cc2)cc1 (centres undefined),"inconclusive: 31.6 µM [inhibitor, single point]"
21,Cn1c(-c2nnn(-c3ccc(F)cc3)n2)cc2ccccc21,inactive
22,O=C1c2ccc(O)c(O)c2C(=O)c2c(O)ccc(O)c21,"inconclusive: 1 µM [inhibitor, partial curve]"
23,Cc1ccccc1-n1c(Cn2c(=O)sc3ccccc32)nnc1SCC(N)=O,"inconclusive: 7.06 µM [activator, single point]"
24,CCOC(=O)c1c(C)[nH]c(N=Nc2ccccc2C)c1C,inactive
25,Cc1nc2ccccc2c(=O)n1-c1ccccc1C(F)(F)F,inactive

row,SMILES,Potency
1,CCN(CC(=O)Nc1ccc(NC(C)=O)cc1)CC(=O)Nc1ccc(Cl)c(Cl)c1,active: 7.94 µM
2,O=C(O)C1CSC(CCc2ccccc2)N1 (centres undefined),"inconclusive: 19.9 µM [inhibitor, partial curve]"
3,O=C(Nc1ccc(S(=O)(=O)NCC2CCCO2)cc1)c1cccc(F)c1 (centres undefined),inactive
4,Cc1ccccc1NC(=O)c1ccc(CN2CCc3ccccc3C2)cc1,"inconclusive: 22.4 µM [inhibitor, partial curve]"
5,COc1ccc(CNc2ncc(-c3ccc(Cl)cc3)n2C)c(OC)c1OC,"inconclusive: 31.6 µM [inhibitor, partial curve]"
6,O=C(CC(Nc1ccccc1)C(=O)O)c1ccccc1 (centres undefined),inactive
7,Cc1c(C(=O)NNC(=S)Nc2cccc(Cl)c2)nnn1-c1ccccc1,"inconclusive: 22.3 µM [activator, partial curve]"
8,C=CCc1c(C)nc2c(C)cccc2c1SC(=N)N,"inconclusive: 22.3 µM [inhibitor, single point]"
9,Nc1ccc(OC(=O)Nc2ccc(O)cc2)cc1,"inconclusive: 9.98 µM [inhibitor, partial curve]"
10,COc1cc2[nH]c(=S)n(N(C(C)=O)C(C)=O)c(=O)c2cc1OC,"inconclusive: 14.1 µM [inhibitor, partial curve]"
11,C(=N\Nc1nc2ccccc2[nH]1)/c1ccccn1,"inconclusive: 28.1 µM [inhibitor, single point]"
12,O=C(NCCO)c1ccc2c3n(nc2c1)-c1ccccc1CO3,inactive
13,C=CCN1C(=O)N(/C=C/C)c2cccc3cccc1c23,"inconclusive: 5.61 µM [inhibitor, full curve]"
14,CCO/N=C(/C)c1c(O)cc(-c2ccccc2)n(-c2ccccc2)c1=O,"inconclusive: 17.7 µM [inhibitor, partial curve]"
15,c1ccc2[nH]c(-c3ccnc4ccccc34)nc2c1,"inconclusive: 44.6 µM [inhibitor, single point]"
16,Cc1ccc(C(=O)CSc2nc(N)cc(=O)[nH]2)cc1C,"inconclusive: 39.8 µM [inhibitor, single point]"
17,Cc1ccc(S(=O)(=O)Nc2nnc(C(C)(C)C)s2)cc1,"inconclusive: 15.8 µM [inhibitor, partial curve]"
18,Cc1cc(-c2ccco2)n2c(nc3ccccc32)c1C#N,inactive
19,CC(C)CCNC(=O)c1c(N)n(CC2CCCO2)c2nc3ccccc3nc12 (centres undefined),"inconclusive: 11.2 µM [inhibitor, partial curve]"
20,CN(O)/C=C1\C(=O)Nc2ccccc21,"inconclusive: 17.7 µM [inhibitor, partial curve]"
21,COc1ccc(C=O)c2[nH]c3c(Cl)ncnc3c12,"inconclusive: 17.8 µM [inhibitor, partial curve]"
22,Cc1ccc2[nH]c(-c3ccc(F)cc3F)cc(=O)c2c1,inactive
23,CC(C)c1cccc(OCCCCN(C)C)c1,active: 15.8 µM
24,N#Cc1ccccc1NC(=S)NC(=O)c1cccnc1,active: 14.1 µM
